Laboratory results from the CheMixHub viscosity set.
This continues a long series; more values of the same kind are listed elsewhere.

Experiment: xn = mol fraction of the nth substance listed

O=S1(=O)CCCC1 + O
viscosity [mPa·s], 101 kPa
Conditions	303.15 K	308.15 K	313.15 K	318.15 K	323.15 K
x1 = 0.02074	–	–	0.756	–	0.631
x1 = 0.04649	–	–	0.886	–	0.735
x1 = 0.04934	1.125	1.013	0.9177	0.8357	0.7662
x1 = 0.07703	1.302	–	1.037	–	0.865
x1 = 0.1001	1.466	1.315	1.185	1.075	0.9827
x1 = 0.1147	1.55	–	1.241	–	1.032
x1 = 0.1504	1.813	1.625	1.458	1.318	1.201
x1 = 0.1615	1.9	–	1.528	–	1.261
x1 = 0.2013	2.17	1.93	1.734	1.565	1.422
x1 = 0.2247	2.33	–	1.852	–	1.5
x1 = 0.2496	2.503	2.23	1.997	1.799	1.629
x1 = 0.2978	2.839	2.522	2.257	2.031	1.84
x1 = 0.3102	2.984	–	2.393	–	1.931
x1 = 0.352	3.176	2.824	2.527	2.274	2.053
x1 = 0.4013	3.504	3.105	2.769	2.491	2.252
x1 = 0.4328	3.778	–	2.956	–	2.379
x1 = 0.4524	3.828	3.397	3.038	2.726	2.462
x1 = 0.5025	4.146	3.687	3.293	2.955	2.662
x1 = 0.5496	4.48	3.976	3.546	3.193	2.88
x1 = 0.602	4.842	4.297	3.833	3.448	3.108
x1 = 0.6323	5.085	–	3.996	–	3.256
x1 = 0.6508	5.205	4.625	4.115	3.703	3.337
x1 = 0.7007	5.62	4.98	4.461	4.005	3.612
x1 = 0.7523	6.089	5.397	4.813	4.32	3.895
x1 = 0.7807	6.049	–	4.805	–	3.964
x1 = 0.8022	6.614	5.867	5.228	4.691	4.225
x1 = 0.8526	7.228	6.406	5.72	5.069	4.607
x1 = 0.8985	7.921	7	6.224	5.577	5.008
x1 = 0.9511	8.898	7.827	6.928	6.186	5.536

Cc1cccc(C)n1 + O
viscosity [mPa·s], 101.33 kPa
Conditions	300.12 K	303.12 K	306.99 K
x1 = 0.0182	–	–	1.03
x1 = 0.0406	1.778	1.657	1.546
x1 = 0.04497	1.79	1.675	1.572
x1 = 0.04989	2.015	1.876	1.841
x1 = 0.05536	2.15	2.002	2.072
x1 = 0.06006	2.261	2.103	2.284
x1 = 0.06724	2.42	2.245	2.413
x1 = 0.07288	2.553	2.362	2.467
x1 = 0.07938	2.996	2.737	2.516
x1 = 0.08016	2.697	2.491	2.458
x1 = 0.08937	2.865	2.651	2.495
x1 = 0.1447	3.699	3.318	2.942
x1 = 0.2014	4.206	3.739	3.245
x1 = 0.2793	4.344	3.853	3.345
x1 = 0.3794	3.885	3.503	3.091
x1 = 0.5786	2.31	2.112	1.93
